# In PubChem BioAssay AID2675 (National Center for Advancing Translational Sciences (NCATS), 2010):
# Screen size: about 280,000 compounds; about 100 (0.036%) were called active. This list was built around the results that the source calls inconclusive (neither active nor inactive); the mix of calls is not that of the screen. The call rests on the fitted dose curve; in most records, active means well fitted inhibition curve with a large enough effect in the signal ratio, with a control signal flat (not every such curve was filed as active); inconclusive means small, poorly fitted or top-dose-only effect, or effect the other way, or a change in a side signal; inactive means no such curve, though single readings can be large or run the other way; the % refers to the signal ratio. A potency beside an inconclusive call is a rough fit, not a confirmed value. A note “side channel” means that the fit belongs to a control or component signal, not to the main read-out.
# Molecular target: Muscleblind-like protein 1 (Homo sapiens) (UniProt Q9NR56)
# Test: qHTS Assay for Inhibitors of MBNL1-poly(CUG) RNA binding
# Settings: TR-FRET MBNL1-His/biotin-(CUG)12 binding, 665/545 ratio; activity change, negative = inhibition: at 57.5 µM (top of the series)
# In short: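 TR-FRET readout: Ex 340 nm, 665/545 nm emission ratio, normalized to buffer-only (basal) and MBNL1-(CUG)12 controls. Complex of MBNL1-His with Biotin-(CUG)12, compounds 92 nM–58 uM, incubated 60 min at room temperature.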
# On the % scale 0 is the no-effect control and ±100 the full control effect; potency means the concentration at half of the fitted maximal effect; tags describe the fitted curve by direction and shape or compound fluorescence and quenching.
# Sequence of UniProt Q9NR56 (Q9NR56 whole entry, looked up): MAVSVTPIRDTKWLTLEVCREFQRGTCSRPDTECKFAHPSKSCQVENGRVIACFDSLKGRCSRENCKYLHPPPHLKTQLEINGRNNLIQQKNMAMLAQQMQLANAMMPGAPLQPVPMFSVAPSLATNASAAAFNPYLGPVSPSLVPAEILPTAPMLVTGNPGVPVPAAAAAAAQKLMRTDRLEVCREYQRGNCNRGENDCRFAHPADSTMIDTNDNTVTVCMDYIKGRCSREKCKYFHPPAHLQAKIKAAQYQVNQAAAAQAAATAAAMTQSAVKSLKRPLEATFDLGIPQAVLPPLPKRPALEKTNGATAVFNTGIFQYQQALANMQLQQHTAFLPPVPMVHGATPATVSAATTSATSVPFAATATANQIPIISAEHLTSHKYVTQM
Compound,Potency,"activity change, negative = inhibition"
C=CCN1C(=O)c2ccc(C(=O)N(C)CC(=O)Nc3ccccc3C(F)(F)F)cc2C1=O,"inconclusive: 15.8 µM [quencher, side channel, partial curve]",
CNC(=O)/C=C/c1cc(C(=O)c2ccc(Cl)cc2Cl)cn1C,"inconclusive: 28.2 µM [quencher, side channel, partial curve]",
C/C(=N\NC(=S)Nc1ccc(C(C)C)cc1)c1ccc2c(c1)OCO2,,inactive: 1.54%
N#Cc1ccc(-c2cccs2)nc1SCc1cccnc1,"inconclusive: 11.2 µM [quencher, side channel, partial curve]",
O=C(O)c1ccccc1C(=O)c1ccc(N2CCOCC2)c([N+](=O)[O-])c1,"inconclusive: 22.4 µM [quencher, side channel, partial curve]",
O=C(Nc1cc([N+](=O)[O-])ccc1N1CCOCC1)c1cccs1,"inconclusive: 39.8 µM [quencher, single point]",
CC1CCCN(CCCNC(=O)C2CCC(CNS(=O)(=O)c3cccc4nsnc34)CC2)C1 (centres undefined),"inconclusive: 15.8 µM [quencher, side channel, partial curve]",
CCn1cc(/C=C(/C#N)S(=O)(=O)c2ccccc2)cn1,"inconclusive: 39.8 µM [quencher, side channel, single point]",
O=C(c1ccco1)N1CCN(C(=O)c2cnn3c(C(F)(F)F)cc(-c4cccs4)nc23)CC1,"inconclusive: 17.8 µM [quencher, side channel, partial curve]",
Cc1cccc(N(CC(=O)N=Nc2c(O)[nH]c3ccccc23)S(C)(=O)=O)c1C,"inconclusive: 12.6 µM [quencher, side channel, partial curve]",
COc1ccc(CCNc2cc(N3CCN(C(=O)c4ccccc4F)CC3)ccc2[N+](=O)[O-])cc1OC,"inconclusive: 3.98 µM [quencher, side channel, partial curve]",
COc1ccc(CCNC(=O)c2cc3cccc(OC)c3oc2=O)cc1OC,"inconclusive: 3.16 µM [quencher, side channel, single point]",
COc1cc(/C=C/C(=O)Nc2cc(S(=O)(=O)N3CCOCC3)ccc2N2CCCC2)cc(OC)c1OC,,inactive: 7.97%
Cc1ccc(C)c(NS(=O)(=O)c2ccc3[nH]c(=O)oc3c2)c1,,inactive: -2.85%
NC(=O)CC(NC(=O)Cc1cccc2ccccc12)c1ccc(NC2CC3CCC2C3)c([N+](=O)[O-])c1 (centres undefined),,inactive: 10.9%
Cc1ccc(OC(=O)c2ccc([N+](=O)[O-])cc2Cl)cn1,"inconclusive: 15.8 µM [quencher, side channel, partial curve]",
O=C(O)C(Cc1c[nH]c2ccccc12)NS(=O)(=O)c1cccc2nsnc12 (centres undefined),"inconclusive: 14.1 µM [quencher, side channel, partial curve]",
CC(C)(Oc1ccc(Cl)cc1)C(=O)Nc1ccc2oc(-c3ccncc3)nc2c1,,inactive: -1.8%
CC1=NN(C(N)=S)C(=O)C1N=Nc1ccc(O)cc1 (centres undefined),"inconclusive: 14.1 µM [quencher, side channel, partial curve]",
O=C(Nc1cc(Cl)cc(Cl)c1)N1CCCN(Cc2ccccc2)CC1,"inconclusive: 2.51 µM [quencher, side channel, full curve]",

Compound,Potency,"activity change, negative = inhibition"
Cn1cc([N+](=O)[O-])c(C(=O)NC2CCCCCCC2)n1,"inconclusive: 35.5 µM [quencher, side channel, single point]",
C=CCn1c2ccccc2c2nnc(SCC(=O)Nc3c(C)n(C)n(-c4ccccc4)c3=O)nc21,"inconclusive: 31.6 µM [quencher, side channel, single point]",
O=C(CSc1nnc(-c2ccco2)o1)NC(=O)Cc1ccccc1,,inactive: 0.839%
CC(=O)Nc1ccc(Oc2ccc3c(c2)C(=O)NC3=O)cc1,"inconclusive: 14.1 µM [quencher, side channel, partial curve]",
CCC(=O)Nc1ccc2c(c1)C(=O)N(C)C2=O,"inconclusive: 20 µM [quencher, single point]",
COc1ccc(C(=O)Nc2ccc(S(=O)(=O)N3CCOCC3)cc2)cc1[N+](=O)[O-],"inconclusive: 31.6 µM [quencher, side channel, partial curve]",
O=C(COc1ccccc1[N+](=O)[O-])c1ccccc1,"inconclusive: 3.55 µM [quencher, side channel, full curve, poor fit]",
O=C(NCCNc1ccccc1[N+](=O)[O-])c1cc(F)c(F)cc1Cl,"inconclusive: 7.08 µM [quencher, side channel, partial curve]",
CCc1ccc(-c2cc(C(=O)Nc3ccc(S(=O)(=O)NC(C)=O)cc3)c3ccccc3n2)cc1,"inconclusive: 17.8 µM [quencher, side channel, partial curve]",
O=C(CN1CCCCC1)NNc1nc(-c2ccccc2)c2cc(Cl)ccc2n1,,inactive: 7.45%
COc1ccc(C(=O)Nc2nnc(C3=COCCO3)o2)cc1,,inactive: -4.35%
O=C(NNC(=O)c1cc([N+](=O)[O-])ccc1Cl)c1cccnc1,"inconclusive: 12.6 µM [quencher, partial curve]",
O=C(O)c1ccc(Cl)c(NC(=O)C2CCCN2S(=O)(=O)c2cccc3nsnc23)c1 (centres undefined),"inconclusive: 12.6 µM [quencher, side channel, partial curve]",
CCOC(=O)Cc1nnn(CC(=O)OCC)n1,,inactive: -2.34%
CC(/C=N/n1c(COc2ccccc2)n[nH]c1=S)=C\c1ccco1,,inactive: 9.23%
O=C(NCC1CCCO1)c1ccc(Oc2ccc([N+](=O)[O-])cc2)cc1 (centres undefined),"inconclusive: 15.8 µM [quencher, side channel, partial curve]",
COC/C=C/C1=CC2=CC(=O)C(C)(OC(=O)c3cnc4ccccc4n3)C(=O)C2=CN1Cc1ccc(OC)cc1 (centres undefined),"inconclusive: 22.4 µM [quencher, side channel, partial curve]",
Cc1ccc(C(=S)NCS(=O)(=O)c2ccc(C)cc2)cc1,,inactive: -16.3%
COCCCN1C(=O)C(O)=C(C(=O)c2ccc(C)o2)C1c1cccc(Br)c1 (centres undefined),,inactive: 25.1%
